Source: the supplement of paper PMC12217912
The other results are listed elsewhere or left out. The full chains were built here from the parent and the listed change. Values near 0.05 are background.

B1: TEV protease; numbered along this chain (parent)
chain: MGESLFKGPRDYNPISSSICHLTNESDGHTTSLYGIGFGPFIITNKHLFRRNNGTLVVQSLHGVFKVKDTTTLQQHLVDGRDMIIIRMPKDFPPFPQKLKFREPQREERICLVTTNFQTKSMSSMVSDTSCTFPSGDGIFWKHWIQTKDGQCGSPLVSTRDGFIVGIHSASNFTNTNNYFTSVPKNFMELLTNQEAQQWVSGWRLNADSVLWGGHKVFMVKPEEPFQPVKEATQL

Variants of: B1
Experiment: raw area under fraction-flipped curve 0-4 h after induction (AUC4h, not background-subtracted), DNA-recorder readout of cleavage of the substrate (dimensionless); higher = more cleavage of the substrate by the protease variant
Settings: temperature: 34 °C; time window: 0-4 h after rhamnose induction
Description: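 In vivo DNA recorder in E. coli TOP10(DE3) ΔrhaA at 34 °C. Each TEVp single-site mutant (parent TEVp 0) is paired with a single-site variant of the 7-mer TEVs (canonical ENLYFQ|S). The substrate sits between flexible linkers in a Bxb1-sfGFP-TEVs-SsrA fusion, so cleavage stabilises Bxb1 and speeds flipping of a recombination array, read by NGS. The value is the raw area under the fraction-flipped curve over 0-4 h after rhamnose induction (AUC4h), with ≥20 reads per time point. It is not background-subtracted; inactive controls average about 0.047.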
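Also: Bxb1 expression induced with 0.2% (w/v) L-rhamnose at OD600 near 0.5, cultures sampled hourly, flipped fraction per protease–substrate barcode pair counted by paired-end Illumina sequencing.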

| Variant | area with substrate ENLYFAS | area with substrate ENLYFCS | area with substrate ENLYFES | area with substrate ENLYFIS | area with substrate ENLYFKS | area with substrate ENLYFMS | area with substrate ENLYFNS | area with substrate ENLYFPS | area with substrate ENLYFSS | area with substrate ENLYFTS |
| --- | --- | --- | --- | --- | --- | --- | --- | --- | --- | --- |
| G202I | 0.0364 | 0.0596 | 0.0417 | 0.0549 | 0.0535 | 0.0353 | 0.0661 | 0.0538 | 0.0484 | 0.0717 |
| G202W | 0.0568 | – | 0.0569 | 0.0455 | 0.0561 | 0.0727 | 0.0703 | 0.0594 | – | 0.0556 |
| W203P | 0.0583 | – | – | – | – | – | – | 0.0436 | – | 0.0688 |
| W203S | 0.0454 | 0.0499 | 0.0652 | 0.0555 | 0.0682 | 0.0657 | – | 0.0515 | – | 0.0549 |
| L205S | 0.054 | – | – | 0.0309 | – | – | – | – | – | – |
| L205Y | 0.0405 | 0.0553 | 0.0744 | 0.0554 | 0.0588 | 0.0599 | 0.0609 | 0.0585 | – | 0.0701 |
| N206C | 0.0497 | 0.0571 | 0.0751 | 0.0569 | 0.0612 | 0.0617 | – | 0.0593 | 0.0662 | 0.0648 |
| N206R | 0.0494 | – | 0.0663 | – | 0.0696 | 0.0613 | 0.0652 | 0.0681 | – | 0.0608 |
| A207R | 0.0535 | 0.0542 | 0.0596 | 0.0636 | – | – | – | 0.0441 | – | 0.0533 |
| S209A | 0.113 | – | 0.0684 | 0.0615 | – | – | – | – | – | – |
| S209E | 0.081 | 0.0596 | 0.0911 | – | – | 0.0654 | 0.0685 | 0.0596 | – | 0.0592 |
| S209G | 0.0628 | 0.061 | – | 0.0581 | 0.0766 | – | 0.0747 | 0.0545 | – | 0.0518 |
| S209H | 0.0517 | – | 0.0598 | 0.0653 | – | 0.0597 | 0.0664 | 0.0494 | – | 0.0741 |
| S209W | 0.0676 | – | 0.0784 | 0.0643 | – | 0.0772 | – | 0.0811 | 0.0624 | 0.0605 |
| L211N | 0.0765 | – | 0.0889 | 0.055 | – | 0.0654 | – | 0.0456 | – | – |
| G213C | 0.05 | – | 0.0535 | 0.0561 | 0.0647 | – | – | 0.0558 | 0.0529 | – |
| G213H | 0.0617 | 0.0554 | 0.0561 | – | 0.0561 | 0.0587 | – | – | – | – |
| G214E | 0.0633 | – | 0.0614 | 0.0735 | – | 0.0672 | – | 0.0409 | – | – |

Same assay, conditions: temperature: 34 °C; time window: 0-4 h after rhamnose induction

| Variant | area with substrate ENLYFDS | area with substrate ENLYFHS | area with substrate ENLYFLS | area with substrate ENLYFYS | area with substrate ENLYFFS | area with substrate ENLYFRS | area with substrate ENLYFWS | area with substrate ENLYFGS | area with substrate ENLYFVS |
| --- | --- | --- | --- | --- | --- | --- | --- | --- | --- |
| G202W | 0.05 | 0.0464 | 0.0585 | 0.0762 | – | – | – | – | – |
| W203P | – | – | – | – | 0.0559 | 0.0544 | – | – | – |
| W203S | – | 0.0752 | – | 0.0607 | 0.0649 | 0.0063 | – | – | – |
| L205S | – | – | 0.0622 | 0.0078 | – | – | – | – | – |
| L205Y | – | – | 0.0785 | 0.0604 | – | 0.0643 | 0.0481 | – | – |
| N206C | – | 0.0593 | – | 0.0561 | 0.071 | – | 0.0091 | 0.0609 | 0.0417 |
| N206R | 0.0451 | 0.0804 | – | – | 0.0684 | 0.072 | – | 0.065 | 0.0604 |
| A207R | – | 0.0624 | – | – | 0.0603 | 0.0467 | – | – | 0.0118 |
| S209A | 0.063 | 0.0647 | – | – | – | – | – | – | – |
| S209E | 0.0551 | – | – | – | 0.0681 | – | – | – | – |
| S209G | – | – | – | – | 0.0694 | 0.0843 | – | – | 0.0615 |
| S209H | – | 0.065 | – | – | 0.0709 | 0.0762 | – | 0.0589 | – |
| S209W | – | – | – | – | – | – | – | – | 0.0553 |
| L211N | – | – | – | 0.0951 | 0.0664 | 0.0667 | – | – | – |
| G213C | – | 0.0521 | – | – | 0.0638 | 0.064 | – | – | – |
| G213H | – | – | – | 0.0593 | – | – | – | – | – |
| G214E | – | 0.0457 | 0.0549 | – | 0.0787 | – | 0.0476 | 0.0305 | 0.0192 |
